Read counts are not given, so values of variants with three or more changes are uncertain.
B1: LINE1-mini (parent)
chain: GGCAGAGCUCAACACAGCGUGGCAAAGUGGCUGUGGCUAGACUGCC

Variants of: B1
Test: self-cleavage, relative activity (ratio to wild type); higher = more cleavage; in vitro, sequencing; the parent is a self-cleaving ribozyme

Row | Variant | self-cleavage
1 | G7U C10A A25C G35U | 0.02
2 | G1U C10U U32A | 0.02
3 | A14G A16C C18G C23G G33U A41C U43C | 0.01
4 | A6G C15U A24U | 0.09
5 | C8G G36C U38G A39U C42G | 0.07
6 | G7C G29U U32G | 0.02
7 | A6C A16G U20A G27U G29A U43A | 0.08
8 | G5U G7C C15U G44U | 0.08
9 | A4U G22U G33A U43C | 0.2
10 | A6C A12C U32G | 0
11 | A6U C10U C13U U28G G29A U34G G36C U43A G44U | 0.01
12 | A25G G29U G30U | 1.55
13 | G30U C31A C37U A41G C46A | 0
14 | G1C C10U G27U G35U C45U | 0.01
15 | G5U A26U U34C | 0.07
16 | C10A U28G G35A C46U | 0.03
17 | C13A G27A G29A A39U A41C | 0.03
18 | G22U G30A C42G | 0.07
19 | G17A C18A A25C A26G A41C | 0.03
20 | C10A A12C G19U U32A C46G | 0.01
21 | G5A U9A G21A G44A | 0.06

Row | Variant | self-cleavage
22 | G17C C18U U28A | 0.34
23 | G17A A24G A41U C46A | 0.09
24 | C3G C15U G17U U20G | 0.15
25 | C15A C18A C31A C42A | 0.02
26 | C13A C18U C46A | 0.04
27 | G5C A12U C13A G21C | 0.04
28 | G2C A4G C8U U9G A26C C31A | 0.03
29 | A6C C15A G19C | 0.19
30 | A4C A6G C23U G30C G44U | 0.62
31 | A6G C15U G36C | 0.02
32 | U9C U20C G21U A25C C37U C45A | 0
33 | A6G A14C C42U G44C | 0.03
34 | C15A G21C A26C G30C G35U | 0.02
35 | C3G A12C C37U | 0.02
36 | C23U U43C G44C C45A | 0.02
37 | G1C C3G G36C G44A | 0.24
38 | G1U C3A A16G U32A G36A | 0.08
39 | A14U A24U G27A | 0.46
40 | A12C G21A U32A | 0
41 | C13A A14U C46A | 0.04
42 | A6G G7C G17U G27A C45G | 0.08

Row | Variant | self-cleavage
43 | G1C C23G A25U A41C C42U | 0.01
44 | C10A U34C C46U | 0.04
45 | A6G G27C U28A G36A | 0.05
46 | A4U A14U A26G U34C U38A C45G | 0.03
47 | G5U G21U U43G | 0.05
48 | G27A C31U G33A G36A | 0.02
49 | A11U U38G A41G | 0
50 | A6G C37G C42U C46A | 0.2
51 | C3U A12U C13U C37A C45A | 0.05
52 | G5C U9A C13A | 0.03
53 | G2A A4C A6C A14U A16C G35C C45U | 0.07
54 | C10U C13G G21C C31A U32A A39G A41U C42A | 0.02
55 | A11C C15A A25G | 0.05
56 | A11U G19C C23G A24G G29C G33U G40A | 0.04
57 | C3U A16C C42A | 0.08
58 | C3A A6G C23A G36U | 0.05
59 | G19A G21A G27A C45U C46A | 1.38
60 | G22C U32C C37U | 0.01
61 | A4G G5U U34A | 0.01
62 | G22C G36C A39G | 0.09
63 | G7U C15A C42A | 0.02

Row | Variant | self-cleavage
64 | G29U G44U C45A | 0.21
65 | G2A G5C C15U A26G G40U | 0.09
66 | C10U C13A A26G G36A A41U | 0.02
67 | C18U A24G G30U U38C | 0.24
68 | G5U G17U C18U G33U | 0.03
69 | G1A U9C A25G A39C A41G | 0.07
70 | U9A G21U G44A | 0.16
71 | A16U G27C G30U | 0.16
72 | G2A U9A C13A A14C A16C C23A C31U | 0.04
73 | G2U C15G A26C | 0
74 | G22C A26C G29U | 0.23
75 | A14G A16G U20C | 0.12
76 | G2C C3A C13G A24G G30U C46U | 0.01
77 | G1C G2U A26C | 0.05
78 | C3G A4U C10A | 0.03
79 | C10U A11U A16U G29U | 0.02
80 | A4U G5A G44C | 0.06
81 | G7A G27U U38C | 0.11
82 | A4U C15U G22U G35U | 0.13
83 | A16G G21U A26C | 0.37
